Tests used:
[1] = molecular target: T1, recombinant human CD47 protein (human, UniProt Q08722 in part); assay: ELISA on coated recombinant human CD47
T1 construct: Bought protein; also called human recombinant CD47 protein; CD47 recombinant protein
Method: (§1) The binding of binding agents comprising anti-PD-1 and -CD47 antigen binding domain to recombinant human or cynomolgous PD-1 (Cedarlane, Cat. No. HPLC-10377-H08H-100) or recombinant human or cynomolgous CD47 (Cedarlane, Cat. No. 12283-H08H-200 and 90869-C08H) was assessed by ELISA (FIG. 9A, FIG. 9B, FIG. 9C, FIG. 9D, FIG. 22, FIG. 23). […] The monoclonal anti-CD47 antibody (clone B6H12) was used as a positive control in CD47 binding assays (Biolegend, Cat. No. 401401).
(§2) Briefly, recombinant proteins were coated on 96-well plates. Plates were covered and left at 4° C. overnight. The next day, plates were washed once with PBS and blocked with blocking buffer for 1 hour at room temperature. Binding agents were tested at the indicated concentration, diluted in the blocking buffer, and incubated for 1 hour at 37° C. After incubation, plates were washed three times with washing buffer. Plates were incubated with anti-human-Fc-HRP (Sigma-Aldrich, Cat. No. APi 13P) diluted at 1:5000 for 1 hour at room temperature, then washed three times with PBS-T washing buffer. The signal was developed with SuperSignal™ ELISA Pico Chemiluminescent Substrate (Thermofisher, Cat. No. 37069). The plates were read on a SpectraMax™ i3x Multi-Mode Microplate Reader (Molecular Devices).

[2] = molecular target: T1, recombinant human CD47 protein; assay: ELISA on coated recombinant human CD47, 1/5 dilutions from 50 nM (FIG. 9C)
Method: as §1, §2

[3] = molecular target: T2, human CD47 on cells (HEK293T cells; primary human T cells and other blood cells) (human, UniProt Q08722); assay: Flow cytometry on primary human T cells (FIG. 14)
T2 construct: whole, on cells

[4] = molecular target: T2, human CD47 on cells (HEK293T cells; …); assay: Flow cytometry on HEK293T against HEK293T-CD47KO cells (FIG. 13)
[5] = molecular target: T1, recombinant human CD47 protein; assay: ELISA on recombinant human CD47, stressed against unstressed batches (FIG. 25C, FIG. 26C)
Method: as §1, §2

[6] = molecular target: T3, recombinant human PD-1 protein (human, UniProt Q15116 in part); assay: ELISA on recombinant human PD-1, stressed against unstressed batches (FIG. 25B, FIG. 26B)
T3 construct: Bought protein; also called human recombinant PD1 protein; PD-1 recombinant protein
T3 sequence (Q15116 25-167 limits assumed): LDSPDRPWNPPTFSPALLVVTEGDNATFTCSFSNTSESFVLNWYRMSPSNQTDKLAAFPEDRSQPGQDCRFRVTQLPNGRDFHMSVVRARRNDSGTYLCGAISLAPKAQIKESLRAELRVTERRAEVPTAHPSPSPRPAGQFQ
Method: as §1, §2

B1: KC016 (HEWL-specific negative control, VHH-hinge-CH2-CH3) (Fc fusion)
chain: DVQLVESGGGSVQAGGSLRLSCAASGSTDSIEYMTWFRQAPGKAREGVAALYTHTGNTYYTDSVKGRFTISQDKAKNMAYLRMDSVKSEDTAIYTCGATRKYVPVRFALDQSSYDYWGQGTQVTVSS[letters of human IgG1 Fc left out]
notes: Anti-HEWL VHH fused to human IgG1 hinge-CH2-CH3; negative control for KC015
binding result [1]: no binding

B2: KC015 (CD47-specific binding agent, VHH-hinge-CH2-CH3) (Fc fusion)
chain: QVQLQESGGGLVQPGGSLRLSCAASRFDFSVNDIRWYRQAPGNERELVARITGGGRTDYADSVKGRFTISRDNAKNTVYLQMNNLKPEDTAVYYCWGRGYWGQGTQVTVSS[letters of human IgG1 Fc left out]
notes: VHH KC010 fused to human IgG1 hinge-CH2-CH3; expressed as dimer; may comprise a His-tag or not
binding result [2]: binds

B3: KC040 (binding agent comprising anti-D2 and anti-CD47 antigen binding domains; DR2; HEWL; CD47) (Fc fusion)
chain: QVQLQESGGGLVQAGGSLRLSCAASEIIFSITAMNWYRQAPGKQRELVAGISSSGKITYQDSVKGRFTISKDNAKNTLYLQMNSLKPEDTAVYYCNTWAGARDAIWGQGTQVTVSS[letters of human IgG1 Fc left out]APAPAPAPAPKADVQLVESGGGSVQAGGSLRLSCAASGSTDSIEYMTWFRQAPGKAREGVAALYTHTGNTYYTDSVKGRFTISQDKAKNMAYLRMDSVKSEDTAIYTCGATRKYVPVRFALDQSSYDYWGQGTQVTVSSGGGGSGGGGSGGGGSQVQLQESGGGLVQPGGSLRLSCAASRFDFSVNDIRWYRQAPGNERELVARITGGGRTDYADSVKGRFTISRDNAKNTVYLQMNNLKPEDTAVYYCWGRGYWGQGTQVTVSS
notes: KC001 VHH - IgG1 hinge-CH2-CH3 - rigid linker - anti-HEWL VHH - (G4S)3 - KC010 anti-CD47 VHH; expressed as dimer; may comprise a His-tag or not
binding result [3]: binds

B4: KC020 (trispecific binding agent: anti-D2, anti-PD-1 and anti-CD47 antigen binding domains) (Fc fusion)
chain: QVQLQESGGGLVQAGGSLRLSCAASEIIFSITAMNWYRQAPGKQRELVAGISSSGKITYQDSVKGRFTISKDNAKNTLYLQMNSLKPEDTAVYYCNTWAGARDAIWGQGTQVTVSS[letters of human IgG1 Fc left out]APAPAPAPAPKAQVQLQESGGGWVQPGGSLRLSCVASGFTFSRSSMSWHRQAPGKERDLVAIISSSGIITHYSDSVKGRFTISRDNAKDTVYLQMNSLKPEDTAVYVCNAVLDDDSGDYWGQGTQVTVSSGGGGSGGGGSGGGGSQVQLQESGGGLVQPGGSLRLSCAASRFDFSVNDIRWYRQAPGNERELVARITGGGRTDYADSVKGRFTISRDNAKNTVYLQMNNLKPEDTAVYYCWGRGYWGQGTQVTVSS
notes: KC001 VHH - IgG1 hinge-CH2-CH3 - rigid linker - KC009 VHH - (G4S)3 - KC010 VHH; dimer of two identical chains; may comprise a His-tag or not
binding result [4]: binds
binding result [5]: binds
binding result [6]: binds

— patent US20240166739A1 (KISOJI BIOTECHNOLOGY, published 2024)
